# “And” between values parts separate entries of the source, which are not always exact repeats. Identical values can stand only once. Counter-ions that a name gives are not always drawn. In all, about 5,800 compounds went through this assay and about 620 (11%) showed activity.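 Rule for the calls: active = score above a cut-off or among the top three wells of a plate; in these data no inactive exceeds 0.85.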 The entries are a selection whose mix differs from that of the whole data set.
# System: primary human hepatic stellate cells (donor 1)
# Assay: scaled lipid accumulation score (0 = DMSO-like, 1 = nortriptyline-like); higher = stronger HSC inactivation (lipid re-accumulation), active = hit call of the paper
# Conditions: 48 h
# [1] = library stock concentration: 3.33 mM
# [2] = library stock concentration: 10 mM
# [3] = library stock concentration: 80 uM
# [4] = library stock concentration: 400 uM
# [5] = library stock concentration: 2 mM
# [6] = library stock concentration: 1 mM
# [7] = library stock concentration: 4.9 mM
structure (smiles),measurement,setting,value
NC(=O)Nc1sc(-c2ccccc2)cc1C(N)=O [IKK-2 Inhibitor VI],scaled lipid accumulation score,[1],inactive: ≤ 0
CCc1ccc2c(O)c3c(cc2c1C(=O)OC)C(=O)c1c(O)ccc(O)c1C3=O [Bisanhydrorutilantinone],scaled lipid accumulation score,[2],inactive: 0.11
CN(C)[C@@H]1CCc2[nH]c3ccc(NC(=O)c4ccc(F)cc4)cc3c2C1.Cl,scaled lipid accumulation score,[2],active: 1.37
O=C(Cc1ccccc1)Nc1nc2ccc(Cl)cc2c2nc(-c3ccco3)nn12,scaled lipid accumulation score,[2],inactive: 0.596
c1cc2c3c(c1)c1c(n3CCNC2)CCCC1 [WAY 629 hydrochloride],scaled lipid accumulation score,[2],inactive: 0.253
c1cc(-c2cnn3cc(-c4ccc(OCCN5CCCCC5)cc4)cnc23)ccn1 [Dorsomorphin],scaled lipid accumulation score,[3],inactive: ≤ 0
same,scaled lipid accumulation score,[4],inactive: ≤ 0
same,scaled lipid accumulation score,[5],inactive: 0.557
same,scaled lipid accumulation score,[2],inactive: 0.469
"c1cc(-c2cnn3cc(-c4ccc(OCCN5CCCCC5)cc4)cnc23)ccn1 [AMPK Inhibitor, Compound C]",scaled lipid accumulation score,[1],inactive: ≤ 0
O=S(=O)(O)c1cc(I)c(O)c2ncccc12,scaled lipid accumulation score,[2],inactive: ≤ 0
Cn1cc(C2=C(c3cn(CCCN)c4ccccc34)C(=O)NC2=O)c2ccccc21 [Bisindolylmaleimide VIII (acetate)],scaled lipid accumulation score,[6],inactive: ≤ 0
CCN1C(=CC(C)=O)Sc2ccc(OC)cc21,scaled lipid accumulation score,[1],inactive: ≤ -0.009
same,scaled lipid accumulation score,[2],inactive: ≤ 0
O=C1[C@H](CC[C@H](O)c2ccc(F)cc2)[C@@H](c2ccc(O)cc2)N1c1ccc(F)cc1,scaled lipid accumulation score,[2],inactive: ≤ 0
O=C1[C@H](CC[C@H](O)c2ccc(F)cc2)[C@@H](c2ccc(O)cc2)N1c1ccc(F)cc1 [Ezetimibe],scaled lipid accumulation score,[1],inactive: ≤ 0
same,scaled lipid accumulation score,[7],inactive: ≤ 0
same,scaled lipid accumulation score,[2],inactive: ≤ 0 and inactive: ≤ -0.027
CC1COCCN1c1cc(C2(S(C)(=O)=O)CC2)nc(-c2cccc3[nH]ccc23)n1 (centres undefined),scaled lipid accumulation score,[1],inactive: ≤ 0
same,scaled lipid accumulation score,[2],inactive: ≤ -0.001
CN(C)C/C=C/C(=O)Nc1cccc(Nc2ncc3c(n2)N(C)c2ccccc2C(=O)N3C)c1,scaled lipid accumulation score,[3],inactive: ≤ -0.009
same,scaled lipid accumulation score,[4],inactive: 0.1
same,scaled lipid accumulation score,[5],inactive: 0.846
same,scaled lipid accumulation score,[2],inactive: 0.566
CN1CCOC(c2ccccc2)c2ccccc2C1 (centres undefined) [Nefopam hydrochloride],scaled lipid accumulation score,,inactive: 0.521
CN1CCOC(c2ccccc2)c2ccccc2C1 (centres undefined) [Nefopam],scaled lipid accumulation score,library stock concentration: 7.9 mM,inactive: 0.53
same,scaled lipid accumulation score,[2],inactive: 0.244
COC(=O)c1ccc2c(c1)NC(=O)C2=C(Nc1ccc(N(C)C(=O)CN2CCN(C)CC2)cc1)c1ccccc1 [Nintedanib (BIBF 1120)],scaled lipid accumulation score,[1],active: 1.2
same,scaled lipid accumulation score,[2],active: 1.33
N=C(N)NCCCCN [Agmatine sulfate],scaled lipid accumulation score,[2],inactive: ≤ 0 and inactive: 0.044
CNCCC[C@]12CC[C@H](c3ccccc31)c1ccccc12 [Maprotiline HCl],scaled lipid accumulation score,library stock concentration: 7.2 mM,active: 1.22
CCc1cc(-c2n[nH]c(C)c2-c2ccc3c(c2)OCCO3)c(O)cc1O,scaled lipid accumulation score,[2],inactive: ≤ -0.001
CN1CCC(=C2c3ccccc3CCc3sccc32)CC1 [Pizotyline malate],scaled lipid accumulation score,library stock concentration: 4.7 mM,inactive: 0.792
CN1CCC(=C2c3ccccc3CCc3sccc32)CC1 [Pizotifen malate],scaled lipid accumulation score,,inactive: 0.782
CN1CCC(=C2c3ccccc3CCc3sccc32)CC1 [Pizotifen Malate],scaled lipid accumulation score,[1],inactive: 0.473
COc1ncc(-c2ccc3nccc(-c4ccnnc4)c3c2)cc1NS(=O)(=O)c1ccc(F)cc1F,scaled lipid accumulation score,[3],inactive: ≤ -0.009
same,scaled lipid accumulation score,[4],inactive: ≤ -0.009
same,scaled lipid accumulation score,[5],inactive: ≤ -0.009
same,scaled lipid accumulation score,[1],inactive: 0.066
same,scaled lipid accumulation score,[2],inactive: 0.479 and inactive: 0.24
CCN(CC)CCOc1ccc(C(=C(Cl)c2ccccc2)c2ccccc2)cc1 [Clomiphene citrate],scaled lipid accumulation score,[7],inactive: 0.705
same,scaled lipid accumulation score,[2],inactive: ≤ 0
CCN(CC)CCOc1ccc(C(=C(Cl)c2ccccc2)c2ccccc2)cc1 [Clomifene citrate],scaled lipid accumulation score,[1],inactive: 0.72
Cl.Cl.NC1(c2ccc(-c3nc4ccn5c(=O)[nH]nc5c4cc3-c3ccccc3)cc2)CCC1,scaled lipid accumulation score,[4],active: 1.07
same,scaled lipid accumulation score,[5],active: 1.23
C[C@@H](CN1CCC(n2c(=O)[nH]c3cc(Cl)ccc32)CC1)NC(=O)c1ccc2ccccc2c1.Cl,scaled lipid accumulation score,[2],active: 1.12
CN(C)[C@@H]1C(O)=C(C(=O)NCNCCCC[C@H](N)C(=O)O)C(=O)[C@@]2(O)C(O)=C3C(=O)c4c(O)cccc4[C@@](C)(O)[C@H]3C[C@@H]12 [Lymecycline],scaled lipid accumulation score,,inactive: 0.003
CCCCNc1ccc(C(=O)OCCN(C)C)cc1 [Tetracaine hydrochloride],scaled lipid accumulation score,library stock concentration: 6.6 mM,inactive: 0.296
same,scaled lipid accumulation score,[2],inactive: 0.379 and inactive: 0.168
CCCCNc1ccc(C(=O)OCCN(C)C)cc1 [Tetracaine HCl],scaled lipid accumulation score,[1],inactive: 0.052
same,scaled lipid accumulation score,[2],inactive: 0.475
O=C(Nc1ccc(-c2ccnc(Nc3ccc(N4CCOCC4)cc3)n2)cc1)[C@@H]1CCCN1,scaled lipid accumulation score,[2],active: 1.06
COc1ccc(NC(=O)c2ccc(-c3ccc(-c4noc(C)n4)cc3C)cc2)cc1N1CCN(C)CC1,scaled lipid accumulation score,[2],inactive: 0.278 and inactive: 0.753
COc1ccc2cc(-c3nc(-c4ccc([S+](C)[O-])cc4)[nH]c3-c3ccncc3)ccc2c1 (centres undefined) [Tie2 kinase inhibitor],scaled lipid accumulation score,[1],inactive: 0.024
same,scaled lipid accumulation score,[2],inactive: ≤ 0
CCCCCOC(=O)Nc1nc(=O)n([C@@H]2O[C@H](C)[C@@H](O)[C@H]2O)cc1F [Capecitabine],scaled lipid accumulation score,[1],inactive: ≤ 0
same,scaled lipid accumulation score,[2],inactive: ≤ 0
CCCCCOC(=O)Nc1nc(=O)n([C@@H]2O[C@H](C)[C@@H](O)[C@H]2O)cc1F,scaled lipid accumulation score,[2],inactive: ≤ 0
CN(C)CCOC(c1ccc(Cl)cc1)c1ccccn1 (centres undefined) [Carbinoxamine Maleate],scaled lipid accumulation score,[2],inactive: 0.55
CN(C)CCOC(c1ccc(Cl)cc1)c1ccccn1 (centres undefined) [Carbinoxamine maleate],scaled lipid accumulation score,[7],inactive: 0.198
same,scaled lipid accumulation score,[2],inactive: ≤ 0
CN(C)CCOC(c1ccc(Cl)cc1)c1ccccn1 (centres undefined) [Carbinoxamine maleate salt],scaled lipid accumulation score,,inactive: 0.192
Cc1cc(NC(=O)c2cccc(NC(=O)C=CCN(C)C)c2)ccc1Nc1nccc(-c2cccnc2)n1,scaled lipid accumulation score,[1],active: 1.08
same,scaled lipid accumulation score,[2],active: 1.02
"CCCCCCCC/C=C\CCCCCCCC(=O)OC[C@H](CO)OC(=O)CCCCCCC/C=C\CCCCCCCC [1,2-Dioleoyl-sn-glycerol]",scaled lipid accumulation score,[6],inactive: ≤ 0
CCCCCCCCCCCCCCCC(=O)C(F)(F)F [Palmityl Trifluoromethyl Ketone],scaled lipid accumulation score,[6],inactive: ≤ 0
CCCCCCCCCCCCCCCC(=O)C(F)(F)F,scaled lipid accumulation score,[2],inactive: 0.032
NC(=O)NC1NC(=O)NC1=O (centres undefined) [Allantoin],scaled lipid accumulation score,,inactive: 0.178
same,scaled lipid accumulation score,[2],inactive: ≤ 0
same,scaled lipid accumulation score,library stock concentration: 12.6 mM,inactive: ≤ 0
Clc1ccc2c(c1)C(N1CCNCC1)=Nc1ccccc1O2 [Amoxapine],scaled lipid accumulation score,library stock concentration: 6.4 mM,active: 0.886
CCCCC[C@H](O)/C=C/[C@@H]1[C@@H](C/C=C/CCCC(=O)O)[C@@H](O)C[C@H]1O [5-trans Prostaglandin F2.alpha.],scaled lipid accumulation score,[6],inactive: ≤ 0
CCCCC[C@H](O)/C=C/[C@@H]1[C@@H](C/C=C/CCCC(=O)O)[C@@H](O)C[C@H]1O [5-trans Prostaglandin F2.alpha. (tromethamine salt)],scaled lipid accumulation score,[6],inactive: ≤ 0
CCCCCCCCCCCC1=C(O)C(=O)C=C(O)C1=O [Embelin],scaled lipid accumulation score,[1],inactive: ≤ 0
same,scaled lipid accumulation score,[2],inactive: 0.153 and inactive: 0.039 and inactive: ≤ -0.001
COc1cc(C(=O)OCCC[NH+]2CCC[NH+](CCCOC(=O)c3cc(OC)c(OC)c(OC)c3)CC2)cc(OC)c1OC.[Cl-].[Cl-] [Dilazep hydrochloride],scaled lipid accumulation score,[2],active: 0.951
COc1c2ccoc2cc2oc(=O)ccc12 [Bergapten],scaled lipid accumulation score,[1],inactive: ≤ 0
same,scaled lipid accumulation score,[2],inactive: ≤ -0.001 and inactive: 0.018
Cc1ncc2ccccc2c1C#N [4-Cyano-3-methylisoquinoline],scaled lipid accumulation score,[1],inactive: ≤ 0
NCCNS(=O)(=O)c1cccc2c(Cl)cccc12 [A3 hydrochloride],scaled lipid accumulation score,[2],inactive: ≤ 0
"CC(C)NCC(O)c1ccc(O)c(O)c1 (single isomer, unassigned; (-)) [(-)-Isoproterenol hydrochloride]",scaled lipid accumulation score,,inactive: ≤ 0
same,scaled lipid accumulation score,[2],inactive: ≤ -0.055
"CC(C)NCC(O)c1ccc(O)c(O)c1 (single isomer, unassigned; (-)) [(?)-Isoproterenol hydrochloride]",scaled lipid accumulation score,[2],inactive: 0.01
"CC(C)NCC(O)c1ccc(O)c(O)c1 (single isomer, unassigned; (-)) [Isoproterenol hydrochloride]",scaled lipid accumulation score,library stock concentration: 8.1 mM,inactive: 0.008
same,scaled lipid accumulation score,[2],inactive: ≤ 0 and inactive: ≤ -0.006
"CC(C)NCC(O)c1ccc(O)c(O)c1 (single isomer, unassigned; (-))",scaled lipid accumulation score,[2],inactive: ≤ 0
"CC(C)NCC(O)c1ccc(O)c(O)c1 (single isomer, unassigned; (-)) [S(+)-Isoproterenol (+)-bitartrate]",scaled lipid accumulation score,[2],inactive: ≤ -0.055
"CC(C)NCC(O)c1ccc(O)c(O)c1 (single isomer, unassigned; (-)) [R(-)-Isoproterenol (+)-bitartrate]",scaled lipid accumulation score,[2],inactive: ≤ -0.056
"CC(C)NCC(O)c1ccc(O)c(O)c1 (single isomer, unassigned; (-)) [Isoprenaline HCl]",scaled lipid accumulation score,[1],inactive: 0.036
same,scaled lipid accumulation score,[2],inactive: ≤ 0
O=C1C(O)=C([C@H]2CC[C@H](c3ccc(Cl)cc3)CC2)C(=O)c2ccccc21 [Atovaquone],scaled lipid accumulation score,,inactive: 0.086
same,scaled lipid accumulation score,[2],inactive: ≤ -0.027
Cc1ccccc1C(OCCN(C)C)c1ccccc1 (centres undefined) [Norflex],scaled lipid accumulation score,[2],inactive: 0.726
Cc1ccccc1C(OCCN(C)C)c1ccccc1 (centres undefined) [Disipal],scaled lipid accumulation score,[2],inactive: 0.676
Cc1ccccc1C(OCCN(C)C)c1ccccc1 (centres undefined) [Orphenadrine Citrate],scaled lipid accumulation score,[1],inactive: 0.282
same,scaled lipid accumulation score,[2],inactive: 0.671
Cc1ccccc1C(OCCN(C)C)c1ccccc1 (centres undefined) [Orphenadrine hydrochloride],scaled lipid accumulation score,,inactive: 0.404
same,scaled lipid accumulation score,[2],inactive: 0.526
Cc1ccccc1C(OCCN(C)C)c1ccccc1 (centres undefined) [Orphenadrine citrate],scaled lipid accumulation score,[2],inactive: 0.402
